The target of experiment [1] is Flag-SMURF1-CA (catalytically inactive, C699A) (UniProt Q9HCE7). Briefly: co-IP; HEK293 co-transfected with HA-CYYR1 and Flag-tagged E3s or E3 domains; lysis in TNMG buffer (20 mM Tris-HCl pH 8, 150 mM NaCl, 5 mM MgCl2, 0.5% NP-40, 10% glycerol); IP with anti-Flag overnight at 4 °C, protein G Sepharose; Western blot. For orientation: In western blotting, separated proteins are transferred to a membrane and probed.

Protein sequences, listed by entry. Tags and fused reporters are not part of them. Lines headed by an entry give the natural chain unless they say otherwise; changes in a name come on top. Chains listed by the source or under a name are the forms on record and can include a tag or linker. Residues count along the entry.
Flag-SMURF1-CA (catalytically inactive, C699A) (Q9HCE7, form named): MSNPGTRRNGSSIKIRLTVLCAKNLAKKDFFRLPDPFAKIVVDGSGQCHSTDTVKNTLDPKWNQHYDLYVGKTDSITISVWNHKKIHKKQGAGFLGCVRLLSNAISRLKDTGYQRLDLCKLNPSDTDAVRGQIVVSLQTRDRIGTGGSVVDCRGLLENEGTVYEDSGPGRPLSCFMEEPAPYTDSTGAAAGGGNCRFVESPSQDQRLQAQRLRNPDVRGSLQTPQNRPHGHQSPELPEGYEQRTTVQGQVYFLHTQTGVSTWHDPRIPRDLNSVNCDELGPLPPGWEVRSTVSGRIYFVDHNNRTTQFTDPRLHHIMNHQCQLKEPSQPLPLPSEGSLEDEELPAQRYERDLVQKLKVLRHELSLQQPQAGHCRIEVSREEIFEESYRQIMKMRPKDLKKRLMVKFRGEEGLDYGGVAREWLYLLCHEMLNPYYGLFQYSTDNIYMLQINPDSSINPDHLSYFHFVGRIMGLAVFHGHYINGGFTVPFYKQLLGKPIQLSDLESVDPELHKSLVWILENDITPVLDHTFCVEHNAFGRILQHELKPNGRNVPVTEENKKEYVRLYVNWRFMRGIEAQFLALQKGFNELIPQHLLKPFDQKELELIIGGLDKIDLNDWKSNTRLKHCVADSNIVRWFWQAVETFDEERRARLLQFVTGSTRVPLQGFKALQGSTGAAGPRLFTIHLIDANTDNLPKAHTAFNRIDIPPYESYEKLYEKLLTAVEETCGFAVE
UniProt Q9HAU4: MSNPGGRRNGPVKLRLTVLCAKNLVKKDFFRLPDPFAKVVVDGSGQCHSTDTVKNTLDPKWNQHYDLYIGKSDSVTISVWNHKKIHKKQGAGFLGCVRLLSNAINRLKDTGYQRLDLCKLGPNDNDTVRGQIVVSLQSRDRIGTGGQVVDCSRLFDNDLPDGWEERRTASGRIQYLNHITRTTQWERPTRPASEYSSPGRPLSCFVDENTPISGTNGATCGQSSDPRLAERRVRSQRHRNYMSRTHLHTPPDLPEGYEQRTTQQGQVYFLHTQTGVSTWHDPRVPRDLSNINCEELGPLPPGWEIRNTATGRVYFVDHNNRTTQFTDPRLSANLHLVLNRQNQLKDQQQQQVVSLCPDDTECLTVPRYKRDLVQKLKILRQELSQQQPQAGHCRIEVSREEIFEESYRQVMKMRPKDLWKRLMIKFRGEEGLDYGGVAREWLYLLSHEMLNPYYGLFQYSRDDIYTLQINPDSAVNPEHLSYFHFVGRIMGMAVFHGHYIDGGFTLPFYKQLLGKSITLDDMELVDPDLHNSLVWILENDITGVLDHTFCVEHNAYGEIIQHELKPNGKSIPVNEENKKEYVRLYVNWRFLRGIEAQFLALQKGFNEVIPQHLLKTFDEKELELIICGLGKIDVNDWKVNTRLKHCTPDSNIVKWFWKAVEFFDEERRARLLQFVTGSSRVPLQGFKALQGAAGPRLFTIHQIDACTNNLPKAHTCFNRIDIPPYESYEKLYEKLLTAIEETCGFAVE
UniProt O00308: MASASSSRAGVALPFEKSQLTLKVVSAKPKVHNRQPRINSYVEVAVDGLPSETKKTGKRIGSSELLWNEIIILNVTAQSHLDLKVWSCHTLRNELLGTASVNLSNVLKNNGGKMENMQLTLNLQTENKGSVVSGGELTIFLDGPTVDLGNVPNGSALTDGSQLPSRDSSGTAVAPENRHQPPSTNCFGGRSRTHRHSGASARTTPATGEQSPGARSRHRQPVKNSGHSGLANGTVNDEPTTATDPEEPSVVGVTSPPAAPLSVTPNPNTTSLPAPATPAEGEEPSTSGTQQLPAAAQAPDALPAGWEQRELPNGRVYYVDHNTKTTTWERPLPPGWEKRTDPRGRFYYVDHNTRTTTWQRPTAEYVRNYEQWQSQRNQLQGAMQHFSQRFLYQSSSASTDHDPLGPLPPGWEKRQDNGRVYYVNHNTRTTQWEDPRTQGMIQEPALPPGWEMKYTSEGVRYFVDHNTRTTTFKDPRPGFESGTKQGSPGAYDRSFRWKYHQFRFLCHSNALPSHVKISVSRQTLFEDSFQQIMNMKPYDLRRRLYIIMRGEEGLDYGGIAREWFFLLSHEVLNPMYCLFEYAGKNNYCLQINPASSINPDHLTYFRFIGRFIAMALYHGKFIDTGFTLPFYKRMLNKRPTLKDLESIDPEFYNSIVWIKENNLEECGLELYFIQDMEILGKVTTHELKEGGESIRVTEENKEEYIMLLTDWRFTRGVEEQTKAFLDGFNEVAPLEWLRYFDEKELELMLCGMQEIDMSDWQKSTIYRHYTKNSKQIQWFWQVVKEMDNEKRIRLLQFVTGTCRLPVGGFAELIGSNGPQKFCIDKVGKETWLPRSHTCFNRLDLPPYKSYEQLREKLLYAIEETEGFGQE
UniProt Q96J86, residues 30-154: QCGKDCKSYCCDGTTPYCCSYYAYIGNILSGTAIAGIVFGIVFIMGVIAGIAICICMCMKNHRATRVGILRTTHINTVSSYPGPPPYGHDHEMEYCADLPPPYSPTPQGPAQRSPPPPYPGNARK
UniProt Q8IZ07: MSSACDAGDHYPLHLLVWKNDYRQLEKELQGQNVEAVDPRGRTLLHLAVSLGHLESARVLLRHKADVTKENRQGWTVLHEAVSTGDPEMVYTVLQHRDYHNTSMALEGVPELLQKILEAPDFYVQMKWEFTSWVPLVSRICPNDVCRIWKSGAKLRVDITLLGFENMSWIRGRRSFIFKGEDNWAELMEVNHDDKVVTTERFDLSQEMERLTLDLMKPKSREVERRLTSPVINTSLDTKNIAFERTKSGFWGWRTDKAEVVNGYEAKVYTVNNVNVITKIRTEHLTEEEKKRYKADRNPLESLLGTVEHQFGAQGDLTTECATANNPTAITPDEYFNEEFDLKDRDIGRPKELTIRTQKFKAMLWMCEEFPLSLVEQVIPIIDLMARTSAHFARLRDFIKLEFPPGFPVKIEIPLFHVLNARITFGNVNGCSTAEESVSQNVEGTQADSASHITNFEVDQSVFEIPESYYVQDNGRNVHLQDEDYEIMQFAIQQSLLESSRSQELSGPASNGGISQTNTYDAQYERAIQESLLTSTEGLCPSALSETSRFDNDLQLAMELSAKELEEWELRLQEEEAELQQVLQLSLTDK

For experiment [2], the target named is Flag-SMURF2-CA (catalytically inactive, C716A) (UniProt Q9HAU4). Described as above.
For experiment [3], the target named is Flag-WWP1-CA (catalytically inactive, C890A) (human) (UniProt Q9H0M0). Described as above.
For experiment [4], the target named is Flag-WWP2-CA (catalytically inactive, C838A) (UniProt O00308). The experiment is described as above.
The target in another experiment is GFP-CYYR1 (UniProt Q96J86). Briefly: co-IP; HEK293 transfected with GFP, GFP-CYYR1 or GFP-CYYR1-K154R; lysate on GFP-Trap affinity resin; Western blot for the co-purified proteins.
The target of experiment [5] is endogenous CYYR1 (human (endogenous in MDA-MB-468)) (UniProt Q96J86). Briefly: co-IP; endogenous proteins in MDA-MB-468 cell lysate; IP with anti-CYYR1 antibody (IgG as control), Western blot; the antibody of the IP in Fig. S6B is not told.

Results are given in words; binding and its absence hold for the method and conditions named. Binding seen in cells or lysates may run through a third protein. Some entries that bind do so weakly or less than the wild type.

Regarding HA-CYYR1 (from UniProt Q96J86 30-154), the binding entry in experiment [1] was “no binding”; in experiment [2] it was “no binding”; in experiment [3] it was “binds”; in experiment [4], “binds”.
Take “endogenous ANKRD13A (from UniProt Q8IZ07 1-590)”: the binding entry (with GFP-CYYR1; in experiment [5]) was “binds” in each case.

The values above are taken from paper PMC11399591.
